Reference: the supplement of paper PMC9446081
About 220 (0.56%) of roughly 39,000 compounds showed activity. Some of the results follow.

tested on: Escherichia coli K-12 BW25113; test: relative growth (OD600 normalised to plate interquartile mean) (fraction); higher = less growth inhibition, active = 0.2 or less; settings: 50 µM; LB; incubation time: overnight (16-24 h)
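Also: static incubation at 37 °C against the wild-type strain, values averaged over two biological replicates.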

Row | Compound | relative growth
1 | Cc1noc(C)c1NC(=O)Nc1ccc2c(c1)CC(=O)N([C@@H](C)CO)C[C@@H](C)[C@H](CN(C)Cc1ccc(C(=O)Nc3ccccc3N)cc1)O2 | inactive: 0.994
2 | C[C@@H]1CCCCO[C@H](CN(C)C(=O)Nc2ccc(C(F)(F)F)cc2)[C@@H](C)CN([C@H](C)CO)C(=O)c2cc(NS(=O)(=O)c3ccccc3)ccc2O1 | inactive: 1.01
3 | CCCN(C)C[C@@H]1OCCCC[C@H](C)Oc2ccc(NC(=O)Nc3ccc(C(F)(F)F)cc3)cc2C(=O)N([C@@H](C)CO)C[C@@H]1C | inactive: 1.01
4 | C[C@@H]1CCCCO[C@@H](CN(C)C(=O)CCCN(C)C)[C@H](C)CN([C@@H](C)CO)C(=O)c2cc(NC(=O)Nc3ccc(F)cc3)ccc2O1 | inactive: 1.01
5 | Cn1cc(S(=O)(=O)N2CCN(c3ccccc3F)CC2)c(=O)n(C)c1=O | inactive: 1.05
6 | CCOC(=O)CCn1cc(F)c(=O)[nH]c1=O | inactive: 0.986
7 | O=C(N[C@@H](c1ccc(-c2ccccc2)cc1)c1cnccn1)C1CCN(Cc2cccc(C(F)(F)F)c2)CC1 | inactive: 1.01
8 | COc1ccc(S(=O)(=O)Nc2ccc3c(c2)C(=O)N([C@@H](C)CO)C[C@H](C)[C@@H](CN(C)C(=O)Nc2ccc(F)cc2)OCCCC[C@H](C)O3)cc1 | inactive: 1.02
9 | O=C1C[C@H]2[C@@H](CCN2c2cnccn2)N1 | inactive: 1.02
10 | COc1ccc(S(=O)(=O)N(C)C[C@H]2Oc3ccc(NS(=O)(=O)c4ccc(F)cc4)cc3C(=O)N([C@H](C)CO)C[C@H]2C)cc1 | inactive: 1.02
11 | Cc1noc(C)c1S(=O)(=O)N(C)C[C@H]1Oc2ccc(NC(=O)Nc3ccc4c(c3)OCO4)cc2CC(=O)N([C@@H](C)CO)C[C@H]1C | inactive: 0.994
12 | CN(C)C(=O)C[C@H]1CC[C@@H]2[C@H](COC[C@@H](O)CN2S(=O)(=O)c2ccccc2)O1 | inactive: 0.998
13 | C[C@@H]1CN([C@@H](C)CO)C(=O)c2cc(C#CC3(O)CCCC3)cnc2O[C@H]1CN(C)C(=O)Nc1ccc2c(c1)OCO2 | inactive: 0.988
14 | Cc1ccc(S(=O)(=O)N2CCO[C@@H]2CNC(=O)C(=O)NCc2ccccn2)cc1 | inactive: 1
15 | O=C(C[C@@H]1CC[C@@H]2[C@H](COC[C@@H](O)CN2S(=O)(=O)c2ccccc2)O1)N1CCOCC1 | inactive: 1
16 | CC(C)CC#Cc1cnc2c(c1)C(=O)N([C@H](C)CO)C[C@H](C)[C@@H](CN(C)S(=O)(=O)c1cccs1)O2 | inactive: 1.01
17 | C[C@H](CO)N1C[C@H](C)[C@H](CN(C)Cc2ccncc2)Oc2cc(C#CC(C)(C)O)ccc2S1(=O)=O | inactive: 1
18 | COc1ccc(NC(=O)N(C)C[C@H]2OCCCC[C@@H](C)Oc3ccc(NS(=O)(=O)c4ccccc4)cc3C(=O)N([C@@H](C)CO)C[C@@H]2C)cc1 | inactive: 0.976
19 | C[C@@H]1CN([C@@H](C)CO)C(=O)c2cc(NC(=O)Nc3ccccc3)ccc2O[C@H]1CN(C)C(=O)Nc1cccc2ccccc12 | inactive: 1
20 | C[C@H]1CN([C@@H](C)CO)C(=O)c2cccc(NS(=O)(=O)c3ccc(F)cc3)c2O[C@H]1CN(C)S(C)(=O)=O | inactive: 0.831
21 | COc1ccc(NC(=O)Nc2ccc3c(c2)C(=O)N([C@@H](C)CO)C[C@H](C)[C@@H](CN(C)C(=O)Nc2c(C)noc2C)OCCCC[C@H](C)O3)cc1 | inactive: 1

Row | Compound | relative growth
22 | CC(C)=CCC/C(C)=C/C=O | inactive: 0.996
23 | CNC[C@@H]1Oc2ccc(NS(=O)(=O)c3cn(C)cn3)cc2CC(=O)N([C@H](C)CO)C[C@@H]1C | inactive: 1.01
24 | COc1ccc(S(=O)(=O)Nc2ccc3c(c2)CC(=O)N([C@H](C)CO)C[C@H](C)[C@@H](CN(C)Cc2ccc(-c4ccccc4)cc2)O3)cc1 | inactive: 0.997
25 | C[C@@H]1CCCCO[C@H](CN(C)CC2CCCCC2)[C@H](C)CN([C@H](C)CO)C(=O)c2cc(NS(=O)(=O)c3ccccc3)ccc2O1 | inactive: 1
26 | C=CC(=O)NS(=O)(=O)c1ccccc1 | inactive: 0.949
27 | COc1cccc(NC(=O)N(C)C[C@@H]2Oc3ncc(C#Cc4cccnc4)cc3C(=O)N([C@H](C)CO)C[C@H]2C)c1 | inactive: 0.993
28 | C[C@@H]1CN([C@@H](C)CO)C(=O)c2cc(NC(=O)C3CCCCC3)ccc2O[C@H]1CN(C)S(=O)(=O)c1cn(C)cn1 | inactive: 0.993
29 | CS(=O)(=O)N1C[C@H](NC(=O)c2cnccn2)[C@H]2OCCC[C@H]21 | inactive: 1.02
30 | COc1ccc(S(=O)(=O)N(C)C[C@H]2OCCCC[C@H](C)Oc3ccc(NC(=O)Nc4ccc(F)cc4)cc3C(=O)N([C@@H](C)CO)C[C@H]2C)cc1 | inactive: 1
31 | O=C(O)CCCCCCCCCCCCC1C=CCC1 (stereo unspecified) | inactive: 0.834
32 | [O-]/[N+](=N\O[C@@H]1O[C@H](CO)[C@@H](O)[C@H](O)[C@H]1O)N1CCCC1 | inactive: 0.999
33 | CC(C)[C@@H](CO)N1C(=O)[C@@H]2[C@H]3C(=O)OCCC/C=C\[C@H]3O[C@]23C=CCN(CCN2CCOCC2)C(=O)[C@@H]13 | inactive: 0.99
34 | O=c1nc[nH]c2c1ncn2[C@H]1CC[C@@H](CO)O1 | inactive: 0.488
35 | CCS(=O)(=O)N1CCNCC1 | inactive: 1.01
36 | C[C@@H]1CN([C@@H](C)CO)C(=O)c2cccc(NC(=O)c3cnccn3)c2O[C@H]1CN(C)S(=O)(=O)c1cn(C)cn1 | inactive: 1.01
37 | CCC1(c2ccccc2)C(=O)NCNC1=O | inactive: 0.896
38 | CN1CCN(C(=O)C[C@@H]2CC[C@H]3[C@@H](COC[C@H](O)CN3Cc3ccc4c(c3)OCO4)O2)CC1 | inactive: 0.973
39 | CCC(=O)N(C)C[C@@H]1Oc2ncc(C#C[C@@H](C)O)cc2C(=O)N([C@@H](C)CO)C[C@H]1C | inactive: 1.01
40 | C[C@@H]1CN([C@@H](C)CO)C(=O)c2cc(NS(=O)(=O)c3ccc(F)cc3)ccc2O[C@@H](C)CCCCO[C@@H]1CN(C)S(=O)(=O)c1cn(C)cn1 | inactive: 1.02
41 | CC(C)NC(=O)Nc1ccc2c(c1)CC(=O)N([C@@H](C)CO)C[C@H](C)[C@H](CN(C)S(=O)(=O)c1ccccc1)O2 | inactive: 1
